# The whole screen tested about 110,000 compounds, of which about 230 (0.21%) showed an effect of 50% or more. Some of the results follow.
# Target: DPAP1 (Plasmodium falciparum, UniProt Q8IIJ9)
# Assay: primary screen, percent inhibition; read by cleavage of a fluorogenic dipeptide substrate; higher = more effect of the substance
# Set-up: species or system P. falciparum D10 trophozoite lysates; single well
# 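Also: 30 min substrate incubation versus DMSO and 10 µM JCP410 controls.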
# Sequence of DPAP1 (Q8IIJ9 whole entry, looked up): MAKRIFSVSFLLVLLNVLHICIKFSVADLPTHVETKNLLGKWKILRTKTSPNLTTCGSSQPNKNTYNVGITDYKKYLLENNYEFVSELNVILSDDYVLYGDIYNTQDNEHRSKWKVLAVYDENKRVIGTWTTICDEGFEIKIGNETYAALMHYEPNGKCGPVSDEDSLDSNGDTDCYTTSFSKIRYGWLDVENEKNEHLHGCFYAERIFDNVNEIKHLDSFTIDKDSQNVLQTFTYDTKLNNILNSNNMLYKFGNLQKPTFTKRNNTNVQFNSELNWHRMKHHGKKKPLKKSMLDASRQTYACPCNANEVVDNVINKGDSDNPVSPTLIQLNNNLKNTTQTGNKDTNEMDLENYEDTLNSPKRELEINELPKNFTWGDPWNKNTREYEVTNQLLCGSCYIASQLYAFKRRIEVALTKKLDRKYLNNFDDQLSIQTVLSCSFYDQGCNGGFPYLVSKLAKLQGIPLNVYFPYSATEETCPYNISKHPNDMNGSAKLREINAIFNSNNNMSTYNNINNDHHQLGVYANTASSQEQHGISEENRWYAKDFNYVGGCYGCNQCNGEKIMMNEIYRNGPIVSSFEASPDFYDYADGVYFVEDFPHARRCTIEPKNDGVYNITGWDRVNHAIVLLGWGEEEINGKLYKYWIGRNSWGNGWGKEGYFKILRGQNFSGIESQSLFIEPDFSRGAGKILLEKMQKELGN
row,Structure (SMILES),% Inhibition @ 10 uM [%]
1,COc1ccc(NC(=O)c2ccc(Br)o2)c(C)c1,-2.97
2,O=C(CCN1C(=O)c2ccccc2C1=O)Nc1ccccc1C(F)(F)F,0.035
3,Cc1ccc(N2C(=O)C3CC=CC(C)C3C2=O)cc1Cl (stereo not drawn),4.41
4,CC1=C(C#N)C(=O)N(C)C(=O)/C1=C\c1ccc(-c2cccc(C(=O)OC(C)C)c2)o1,-4.93
5,COc1cc(C2NC(C(=O)O)Cc3c2[nH]c2ccccc32)ccc1O (stereo not drawn),-2.18
6,Fc1ccccc1C1C=C(c2ccc(Cl)cc2OC(F)F)Nc2ncnn21 (stereo not drawn),0.219
7,CN1C(=O)C2(C(C#N)=C(N)N(c3ccc(Cl)cc3)C3=C2C(=O)CC(C)(C)C3)c2ccccc21 (stereo not drawn),2.38
8,Cc1ccc2[nH]c(Cc3nc4cc(C)ccc4[nH]3)nc2c1,5.12
9,Cc1cc(/C=C2\S/C(=N/c3ccc(C(=O)O)cc3)N(C)C2=O)c(C)n1-c1cccc(C(=O)O)c1,42.9
10,Cc1cccc2c1-c1sc(C(=O)N3CCOCC3)cc1CO2,-3.08
11,Cc1ccccc1-c1nc2ccccc2o1,4.38
12,CCOCCc1nnc(NC(=O)C(=O)c2cc(C)n(-c3ccccc3Cl)c2C)s1,-2.84
13,CCCCCn1c(CN2CCN(CC)CC2)nc2c1c(=O)[nH]c(=O)n2C,33.2
14,c1ccc(CN2CCC(N3CCc4ccccc4C3)CC2)cc1,3.48
15,O=C(Cn1nnc(-c2ccccc2Cl)n1)NC1CCCC1,4.19
16,CCOc1ccc2nc(N(CCN(CC)CC)C(=O)c3ccco3)sc2c1,6.08
17,CCc1nn2c(=O)cc(COc3ccc(/C=C4/C(=N)N5C(C)=CSC5=NC4=O)cc3)nc2s1,-5.76
18,CC(C)C[C@H](NC(=O)c1ccccc1)C(=O)NC(C)CN(C)C (stereo partly drawn),3.01
19,O=C(Nc1nc(-c2ccccc2)ns1)c1ccccc1,-3.37
20,C/N=C1\S/C(=C\c2ccc(OCC(=O)O)c(Cl)c2)C(=O)N1C,1.69
21,O=C(Nc1cccnc1)c1cccc(Cl)c1,-0.233
22,c1ccc(-c2onc3ccc(-n4cccc4C4OCCO4)cc23)cc1,3.73
23,Cc1ccc(S(=O)(=O)Cc2ccc(C(=O)NCCC(C)C)o2)cc1,-1.28
24,CCOC(=O)c1c(C)[nH]c(C)c1S(=O)(=O)NCC(=O)Nc1ccc(C)cn1,4.37
25,O=C(NCCC1=CCCCC1)c1cc(S(=O)(=O)NCCc2ccccc2)ccc1F,-1.99
26,COc1ccc(CN2CCN(c3c(-c4cc(C)c(C)cc4C)c(=O)c3=O)CC2)c(OC)c1OC,1.74
27,CCC1CCC(N(C)CC(O)c2ccccc2)CC1 (stereo not drawn),3.15
